# In all, about 310,000 compounds went through this assay and about 14,000 (4.5%) showed an effect of 50% or more. The effect is printed as a negative number. The list shows a part of the results.
# Target: human ether-à-go-go-related gene (hERG) potassium channel (human, UniProt Q12809)
# Experiment: primary screen, population patch clamp on CHO cells stably expressing hERG
# 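Further: peak tail current of the secondary pulse compared with the same well before compound.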
# Sequence of human ether-à-go-go-related gene (hERG) potassium channel (Q12809 whole entry, looked up): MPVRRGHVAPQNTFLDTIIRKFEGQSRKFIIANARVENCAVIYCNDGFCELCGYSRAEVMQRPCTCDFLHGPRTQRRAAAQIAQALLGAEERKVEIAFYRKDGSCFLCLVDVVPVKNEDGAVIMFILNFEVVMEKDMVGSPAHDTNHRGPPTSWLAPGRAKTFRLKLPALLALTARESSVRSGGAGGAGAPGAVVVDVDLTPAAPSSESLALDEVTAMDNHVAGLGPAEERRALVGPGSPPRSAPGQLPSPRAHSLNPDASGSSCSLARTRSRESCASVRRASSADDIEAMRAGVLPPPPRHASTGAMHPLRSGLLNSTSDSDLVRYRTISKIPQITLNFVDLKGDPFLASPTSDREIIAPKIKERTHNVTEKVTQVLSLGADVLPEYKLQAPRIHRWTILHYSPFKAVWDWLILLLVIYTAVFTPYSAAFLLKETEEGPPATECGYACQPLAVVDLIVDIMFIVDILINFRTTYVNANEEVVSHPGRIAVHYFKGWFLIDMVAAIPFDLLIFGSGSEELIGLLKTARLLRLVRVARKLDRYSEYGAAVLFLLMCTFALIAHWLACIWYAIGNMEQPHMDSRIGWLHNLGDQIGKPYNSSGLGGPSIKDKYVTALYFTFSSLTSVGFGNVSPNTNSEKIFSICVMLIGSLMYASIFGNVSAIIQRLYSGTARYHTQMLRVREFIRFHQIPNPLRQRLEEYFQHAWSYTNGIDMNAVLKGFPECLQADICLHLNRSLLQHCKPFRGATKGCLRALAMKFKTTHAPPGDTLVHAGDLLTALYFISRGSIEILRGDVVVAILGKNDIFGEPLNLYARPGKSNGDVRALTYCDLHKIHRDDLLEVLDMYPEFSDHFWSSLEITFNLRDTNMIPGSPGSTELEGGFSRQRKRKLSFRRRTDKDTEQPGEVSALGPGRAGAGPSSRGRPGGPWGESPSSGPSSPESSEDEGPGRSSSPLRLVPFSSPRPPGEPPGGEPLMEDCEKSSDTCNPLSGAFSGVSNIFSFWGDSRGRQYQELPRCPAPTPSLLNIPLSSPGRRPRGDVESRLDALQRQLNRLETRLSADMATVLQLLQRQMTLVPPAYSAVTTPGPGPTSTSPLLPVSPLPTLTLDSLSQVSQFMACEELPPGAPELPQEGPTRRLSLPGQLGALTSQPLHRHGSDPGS
row,Structure (SMILES),"hERG current change (%, negative = inhibition) at 10uM [%]"
1,CCOC(=O)c1c(NC(=O)C(NCCN(C)C)c2ccccc2)sc2c1CCCC2 (stereo not drawn),-73.2
2,COc1ccc(CN(C(=O)c2ccco2)C2CCS(=O)(=O)C2)cc1 (stereo not drawn),-1.27
3,COc1cccc(-c2nn(-c3ccccc3)cc2CN(C)Cc2ccon2)c1,9.02
4,COC(=O)C1=C(C)Nc2sc(C(N)=O)c(N)c2C1c1ccncc1 (stereo not drawn),9.03
5,O=c1c2ccccc2c2ccccc2c(=O)n1CC1CCCO1 (stereo not drawn),-14.4
6,COc1cccc2cc(C(C)N(CCCN3CCOCC3)C(=S)Nc3ccccc3C)oc12 (stereo not drawn),-7.78
7,Cc1ccc2c(c1)c(CC(=O)Nc1ccc(F)cc1)c(C(=O)O)n2C,1.38
8,CCN(CC)CCCNC(=O)c1ccc2c3n(nc2c1)-c1ccc(Cl)cc1CO3,-30.8
9,CC(c1ccccc1F)n1cc(C(=O)NCCCc2nc3ccccc3[nH]2)nn1 (stereo not drawn),24.3
10,CCn1nc(C)c(Br)c1Nc1ccc(Br)cc1,58.3
11,Cc1c2ccccc2c(C)c2c1ccc1ccccc12,-13
12,CSc1nc2c(cnn2-c2ccccc2)c(=O)n1N,0.928
13,CCOc1ccc(NC(=O)COc2ccc(-n3cnnn3)cc2)cc1,-7.81
14,CC(NCCS(=O)(=O)c1ccc(Cl)cc1)c1cccc(Cl)c1 (stereo not drawn),-8.89
15,O=C(NCc1cccc(Cl)c1)c1cccnc1,-11.9
16,O=C1C2CCCN2C(c2ccc(F)cc2)N1c1nccs1 (stereo not drawn),9.91
17,CC(=O)C1=C(C)Nc2ncnn2C1c1ccc(Br)cc1 (stereo not drawn),-12.2
18,CCCCCC(=O)N1CC2(CC(c3cccc(NC(=O)[C@@H]4CCC(=O)N4)c3)=NO2)C[C@@H]1C(N)=O (stereo partly drawn),15.2
19,COc1ccc(OCC(O)CNC(=O)c2cccs2)cc1 (stereo not drawn),9.93

row,Structure (SMILES),"hERG current change (%, negative = inhibition) at 10uM [%]"
1,CCN(CC(=O)Nc1c(F)cccc1F)C(=O)C1=COCCO1,-6.35
2,N#CCCN1CCN(S(=O)(=O)c2ccc(S(=O)(=O)NC3CCCCC3)cc2)CC1,12.7
3,CCOC(=O)Cn1cc(C(=O)c2ccccc2F)c2ccccc21,-71
4,c1ccc(Nc2nc(N3CCCCC3)nc(N3CCCCC3)n2)cc1,-4.68
5,CCCOc1ccc(CSc2nc3ccccc3[nH]2)cc1,-13.1
6,Cc1cc(=O)oc2cc(NC(=O)C(C)Oc3cccc(Cl)c3)ccc12 (stereo not drawn),14.8
7,C(=C\c1ccccc1)/C=N/Nc1nc2ccccc2s1,27
8,Cn1cc(Cl)nc1C(O)c1ccccc1 (stereo not drawn),7.21
9,O=C1Nc2ccccc2N(O)N1c1ccc(S(=O)(=O)N2CCOCC2)cc1,-4.56
10,Cc1ccc2c(cnn2C(=O)CCCC(=O)NC(C)c2ccccc2)c1 (stereo not drawn),-5.97
11,CC(CCc1ccccc1)NC(=O)C1CCN(S(=O)(=O)N2CCOCC2)CC1 (stereo not drawn),1.11
12,CN(C)NC(=S)Nc1ccc(Cl)cc1,-4.72
13,CC(OC(=O)CCCSc1nc2ccccc2s1)C(=O)NC(N)=O (stereo not drawn),-4.64
14,CCCOP(=O)(OCCC)c1c([N+](=O)[O-])cc(C(F)(F)F)cc1[N+](=O)[O-],-7.84
15,Cc1cc(/C=C2\SC(=Nc3ccccc3)NC2=O)c(C)n1-c1ccc(S(N)(=O)=O)cc1,7.84
16,Cc1cc(NS(=O)(=O)c2ccc(NC(=O)C(C(C)C)N3C(=O)c4ccccc4C3=O)cc2)nc(C)n1 (stereo not drawn),10.6
17,CCOC(=O)C1CCN(c2c(Nc3ccc4c(c3)OCCO4)c(=O)c2=O)CC1,-7.32
18,CC1(c2ccc(OCC(N)=O)cc2)NC(=O)NC1=O (stereo not drawn),14.6
19,COc1cc(C2C(C#N)=C(N)Oc3cc(C)oc(=O)c32)cc(OC)c1OC (stereo not drawn),9.69

row,Structure (SMILES),"hERG current change (%, negative = inhibition) at 10uM [%]"
1,CN(c1ccc(C(=O)Nc2cccc([N+](=O)[O-])c2)cc1)S(C)(=O)=O,-0.357
2,CCO[C@H]1OC(C(=O)N2CCCCCCC2)=C[C@@H](c2ccccc2)[C@@H]1CCCO,-8.39
3,Cc1ccc(CNC(=O)c2cccnc2)cc1,16.4
4,COc1cccc(CNC(=O)c2cccc(Br)c2)c1,-10.5
5,Clc1ccc(CN(Cc2ccccc2)C(c2cccs2)c2nnnn2C2CCCC2)cc1 (stereo not drawn),-2.14
6,CCOc1ccc(/C=C/c2nc(C#N)c(NCCCN(C)C)o2)cc1,-46.3
7,Cc1ccc(C(C)NC(=O)c2cccs2)cc1C (stereo not drawn),8.12
8,CCOC(=O)C1=C(C)N(CCCC(=O)O)C(=O)NC1c1ccccc1OC(=O)c1cccs1 (stereo not drawn),10.8
9,CCN(C(=O)COC(=O)CC1CCCCC1)c1c(N)n(Cc2ccccc2)c(=O)[nH]c1=O,-2.9
10,c1ccc(CNc2ncnc3scc(-c4cccs4)c23)nc1,-34.9
11,CCOc1ccc2nc(N3CCC(C(=O)N4CCN(C5CCCCC5)CC4)CC3)sc2c1,-46.1
12,COc1ccc(C(=O)Nc2nc(C)cc(C)n2)cc1,11.8
13,CCNc1nc(Oc2ccc(C(=O)OCC)cc2)nc(SC)n1,-3.76
14,COCCn1c(=N)c(S(=O)(=O)c2ccc(Br)cc2)cc2c(=O)n3ccccc3nc21,-44.3
15,COc1ccc2cnn(-c3ccc(OC(F)(F)Cl)cc3)c(=O)c2c1OC,6.28
16,COc1ccccc1/C=C1\SC(=S)N(CCC(=O)Nc2ccc(C(=O)O)c(O)c2)C1=O,6.45
17,COc1ccc(/C=N/NC(=O)c2cccc3ccccc23)c(OC)c1OC,5.47
18,O=C(NC1CCCCC1)c1ccc(CS(=O)(=O)Cc2ccccc2F)o1,-19.6
19,COc1cccc(/C=C2\N=C(c3c(-c4ccccc4)noc3C)OC2=O)c1,15.8

# — publication PMC4336329 (PLoS ONE, 2015)
